Measurements from PubChem BioAssay AID624417 (National Center for Advancing Translational Sciences (NCATS), 2012).
Among all 410,000 compounds or so, about 6,400 (1.6%) were called active. This list was built around the results that the source calls inconclusive (neither active nor inactive); the mix of calls is not that of the screen. Calls follow the shape of the dose curve; as a rule, active = well fitted inhibition curve with a large enough effect; inconclusive = small, poorly fitted or top-dose-only effect; inactive = no such curve, though single readings can be large or run the other way. No potency is given beside an inconclusive call; the fits are too rough.

The molecules below were run against Glucagon-like peptide 1 receptor (Homo sapiens) (UniProt P43220) (assay: qHTS of GLP-1 Receptor Inverse Agonists (Inhibition Mode)). Details: HEK293 GLP-1R CRE-luciferase, luminescence, 24 h; Potency: GLP-1R form is constitutively active unless noted; series mostly up to 38.3 µM.
How it was run: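 qHTS in 1536-well format: reporter HEK293 cells expressing constitutive GLP-1R activity in DMEM + 10% Nu serum, 24 hr with compounds at 37 deg C, luminescence read after 12 min with detection reagent.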
Also: nearly all actives have a fitted effect of over 55% in size.
Potency is read from the fitted curve at half-maximal effect; tags tell the direction and shape of the fitted curve.

Chain of UniProt P43220 (P43220 whole entry, looked up): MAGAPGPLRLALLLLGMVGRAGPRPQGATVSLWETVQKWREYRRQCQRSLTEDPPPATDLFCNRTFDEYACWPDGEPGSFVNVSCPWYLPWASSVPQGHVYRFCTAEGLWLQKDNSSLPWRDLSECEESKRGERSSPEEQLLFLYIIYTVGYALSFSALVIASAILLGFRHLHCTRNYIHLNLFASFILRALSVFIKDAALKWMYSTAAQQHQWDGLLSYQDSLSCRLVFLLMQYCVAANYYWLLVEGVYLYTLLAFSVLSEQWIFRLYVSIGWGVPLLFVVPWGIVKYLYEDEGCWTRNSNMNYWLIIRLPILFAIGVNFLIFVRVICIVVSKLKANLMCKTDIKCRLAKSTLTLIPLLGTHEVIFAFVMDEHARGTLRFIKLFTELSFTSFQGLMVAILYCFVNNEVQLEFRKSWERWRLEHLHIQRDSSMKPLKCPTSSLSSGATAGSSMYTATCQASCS

SMILES	Potency
CCOC(=O)c1ccc(NC(c2ccc(N(C)C)cc2)P(=O)(OC(C)C)OC(C)C)cc1 (stereo unspecified)	inconclusive [inhibitor, partial curve, poor fit]
CCCN1CCC[C@H](c2cccc(O)c2)C1	inactive
CSc1ncc(/C=C2/C(=O)NC(=O)N(c3ccc(C(C)C)cc3)C2=O)cn1	inactive
CCn1cc2nc(SCc3cc(C)ccc3C)n(Cc3ccc(OC)cc3)c(=O)c2n1	inconclusive [inhibitor, full curve, poor fit]
O=c1oc2ccccc2c2c1nc(C(F)(F)F)n2-c1ccccc1	inactive
CCOC(=O)[C@]12Cc3ccccc3[C@H]1N(C(C)C)C(=O)c1ccccc12	inconclusive [inhibitor, single point]
CCOC(=O)[C@]12Cc3ccccc3[C@H]1N(CCC(=O)OC)C(=O)c1ccccc12	inconclusive [inhibitor, single point]
CCC(C)N1C(=O)/C(=C/c2ccc3c(c2)CCN3CCCCl)C(=O)NC1=S (stereo unspecified)	inactive
Cc1ccccc1-n1c(/C=C/c2ccccn2)nc2ccccc2c1=O	inconclusive [inhibitor, partial curve, poor fit]
COc1ccc(N=Nc2c(O)[nH]c(=S)[nH]c2=O)cc1	inconclusive [inhibitor, single point]
Nc1c(C(=O)NC2CCCC2)c2nc3ccccc3nc2n1CC1CCCO1 (stereo unspecified)	inconclusive [inhibitor, partial curve, poor fit]
COC(=O)C1=C(c2ccc(F)cc2F)C[C@@H]2CC[C@H]1N2C(=O)NCCOc1ccccc1Cl	inconclusive [inhibitor, single point]
N[C@@H]1CC[C@@]2(O)[C@H]3Cc4ccc(O)c5c4[C@@]2(CCN3CC2CC2)C1O5 (stereo partly specified)	inconclusive [inhibitor, partial curve, poor fit]
CN(C)c1ccc(P(=S)(N(C)C)N(C)C)cc1	inconclusive [inhibitor, single point]
CC1(C)Cc2c(sc3c2C(=O)NC(c2cccnc2)N3)CO1 (stereo unspecified)	inactive
CSCCC(c1nnnn1-c1c(C)cccc1C)N1CCC2(CC1)C(=O)NCN2c1ccccc1 (stereo unspecified)	inconclusive [inhibitor, single point]
COc1ccccc1N1CCN(S(=O)(=O)CCNC(=O)CCCc2ccccc2)CC1	inconclusive [inhibitor, single point]
Cc1ncc(CN2CCCC(C(=O)c3cccc(Cl)c3)C2)s1 (stereo unspecified)	inconclusive [inhibitor, partial curve, poor fit]
Cc1cc(C)c(Cn2c(C(=O)O)c(C=O)c3ccccc32)c(C)c1	inconclusive [inhibitor, partial curve]
O=C(Nc1ccc(Cl)cc1)Nc1nccs1	inconclusive [inhibitor, partial curve]
O=C(NCc1ccco1)C(c1ccco1)N(C(=O)Cn1nnc2ccccc21)c1ccc2c(c1)CCC2 (stereo unspecified)	inconclusive [inhibitor, partial curve, poor fit]

SMILES	Potency
CN1CC(C(=O)c2ccc(Cl)cc2)C(c2ccccc2F)C1 (stereo unspecified)	inconclusive [inhibitor, single point]
Clc1ccccc1CNCCc1c[nH]c2ccccc12	inconclusive [inhibitor, single point]
Cc1ccc(C(=O)Nc2ccc(-n3ccnc3P(=O)(O)c3ccccc3)cc2)cc1	inactive
O=C(/C=C/c1ccc(F)cc1)NNC(=O)CCN1CCN(Cc2ccccc2)CC1	inconclusive [inhibitor, partial curve]
CN1CCN(c2ccc(C(N)=O)cc2[N+](=O)[O-])CC1	inactive
CSc1ccc(C(=O)C2CCCN(Cc3cnc(SC)nc3)C2)cc1 (stereo unspecified)	inconclusive [inhibitor, partial curve, poor fit]
COc1nc2ccccc2c(=O)n1-c1ccc(Cl)cc1	inconclusive [inhibitor, single point]
CCCCOP(=O)(c1ccc(N(C)C)cc1)C(O)c1ccc(C(C)C)cc1 (stereo unspecified)	inconclusive [inhibitor, partial curve, poor fit]
c1ccc(OCc2ccc(CCCN3CCOCC3)cc2)cc1	inconclusive [inhibitor, partial curve]
CN1C(=O)C(=Cc2ccccc2Oc2ccc(Cl)cc2)C(=O)N(C)C1=O	inconclusive [inhibitor, partial curve, poor fit]
COc1ccc2c(c1)C13CCCC[C@@H]1C(C2)N(C)CC3 (stereo partly specified)	inconclusive [inhibitor, single point]
CC(C)COC(=O)n1c(=O)oc2ccc(S(=O)(=O)N3CCCCC3)cc21	inconclusive [inhibitor, partial curve]
Cc1ccc(C(C)C)c(OCC(=O)N2CCN(CCc3ccncc3)CC2)c1	inconclusive [inhibitor, partial curve, poor fit]
Cc1cccc(C(O)c2ncc(-c3ccccc3Cl)[nH]2)c1C (stereo unspecified)	inconclusive [inhibitor, single point]
COc1ccc2c(c1)c(C(=O)CN1CCN(C)CC1)c(C)n2Cc1ccccc1	inconclusive [inhibitor, single point]
COCCCn1c(N)c(C(=O)OC(C)COC)c2nc3ccccc3nc21 (stereo unspecified)	inactive
CCOC(=O)C1(c2ccccc2)CCN(CCC(=O)Nc2ccc(F)cc2)CC1	inconclusive [inhibitor, single point]
COc1ccccc1CCNC1C2CC3CC(C2)CC1C3 (stereo unspecified)	inconclusive [inhibitor, partial curve, poor fit]
CCOc1cccc(C2NCc3ccccc3-n3cccc32)c1O (stereo unspecified)	inconclusive [inhibitor, single point]
CCOC(=O)[C@]12Cc3cc(C)ccc3[C@H]1N(C1CCCCC1)C(=O)c1ccccc12	inconclusive [inhibitor, full curve, poor fit]
